The text below walks through data of ChEMBL document CHEMBL1201862, “PubChem BioAssay data set” (2004).

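All cell lines were grown in 96-well plates and treated with compound for 48 hours. Abbreviation: GI50, concentration required for 50% inhibition of growth.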 The source made the active and inactive calls. Rule as the data show it: active = GI50 up to about 1.1 µM and inactive = higher.

The test system of the experiment is NCI-H322M. The experiment in a line: growth of human tumour cells (NCI), 48 h.
Consider `COc1cc2nc(-c3cccs3)oc(=O)c2cc1OC`, for which the GI50 was inactive: > 100 µM. Next, `CN(C)C=O.O=C(Nc1nnn[nH]1)c1nc(O)cc(-c2ccccc2)n1`: inactive: > 100 µM. Under `NCCC1([N+](=O)[O-])CCNCC1` stands inactive: > 100 µM; under `O=C(OCc1ccccc1)N(CCCCN(CCCNCc1ccccc1)C(=O)OCc1ccccc1)CCCNCc1ccccc1`, inactive: 1.39 µM. Next, `N#Cc1c(C#N)c(SSc2c(C#N)c(C#N)c(N)n2-c2ccccc2)n(-c2ccccc2)c1N`: inactive: 22.7 µM; `CN(C)Cc1cc(C(C)(C)C)ccc1-c1ccc(C(C)(C)C)cc1CN(C)C`: inactive: > 100 µM; `CC(C)N1CCOC(c2ccc(O)c(O)c2)C1` (stereo not drawn): inactive: > 100 µM. For the compound `Cn1c2c(cc(-c3ccccc3)c1=O)COc1ccccc1-2`, the GI50 was inactive: 42.3 µM. Take `CCCCCCCCCCCOCCC1C(C(C)OCCN2CCCC2)OC2OC(C)(C)OC21` (stereo not drawn): the GI50 is inactive: 2.92 µM. Next, `Cc1n[nH]c(=O)n1N1C(=O)c2ccccc2C1=O`: inactive: > 100 µM; `COC(=O)/C=C(C)/C=C/c1cc(C(C)=O)c(C)o1`: inactive: > 100 µM; `CN(CCN1C(=O)c2cccc3cccc(c23)C1=O)CCN1C(=O)c2cccc3cccc(c23)C1=O`: inactive: 10.6 µM.

On to `CC1NOC(NS(=O)(=O)c2ccc(/N=N/c3c(O)c(C(=O)O)cc4ccccc34)cc2)C1C` (stereo not drawn), for which the GI50 is inactive: > 100 µM. Under `COC(=O)C1=C(OC(=O)/C=C/c2ccc(Cl)cc2)C(C(=O)OC)[C@]2(O)[C@@H](C(=O)OC)[C@H]1C[C@@H](c1ccccc1)[C@@H]2C(=O)OC` (stereo partly drawn) stands inactive: 6.38 µM; under `O=C(O)c1cc2ccccc2c(O)c1O`, inactive: 14.4 µM. As to `CCN(CC)/[N+]([O-])=N/OCOC`, the GI50 was inactive: > 100 µM. On to `COC(=O)C(CC(=O)Nc1ccc(C)cc1)C(=O)C(=O)Nc1ccccc1C(C)C` (stereo not drawn), for which the GI50 was inactive: > 100 µM. Next, `CN(C)c1ccc(/N=N\c2cccc3ncccc23)cc1`: inactive: > 100 µM; `Cc1ccc(Nc2c3c(c(C#N)c4nc5ccccc5n24)CCCC3)cc1`: inactive: 31.6 µM. Next, `O=C(/C=C1\Nc2ccccc2N\C1=C\C(=O)c1ccc(Cl)cc1)c1ccccc1`: inactive: 83 µM. Next, `Cc1ccc(S(=O)(=O)CN2C(=O)C(c3ccccc3)(c3ccccc3)C23OC(c2ccc(Cl)cc2)=CC3=O)cc1` (stereo not drawn): inactive: > 10 µM. Turning to `CN(C)CCCNC(=O)c1cc(NS(=O)(=O)c2ccc3c(c2)C(=O)c2ccccc2C3=O)cn1C`, the GI50 is inactive: 21.6 µM.

On to `NC(=O)NNCc1c(-c2ccccc2)no[n+]1[O-]`, for which the GI50 was inactive: > 100 µM. Under `Cc1cc(C)c2c(c1C)CN1CN2Cc2c(C)c(C)cc(C)c21` stands inactive: > 100 µM; under `CCOC(=O)CCC(NC(=O)c1ccc(OCc2nc3cc(C(F)(F)F)ccc3nc2-c2ccccc2)cc1)C(=O)OCC` (stereo not drawn), inactive: > 100 µM; under `N#C/C(N)=C(\C#N)NC(=O)C(=O)N/C(C#N)=C(\N)C#N`, inactive: > 100 µM. Next, `S=C1CNC(=S)CN1`: inactive: > 100 µM; `C/C(=N/NC(=O)C(N)=O)C(CC(C(=O)Nc1ccccc1C)/C(C)=N\NC(=O)C(N)=O)C(=O)Nc1ccccc1C` (stereo not drawn): inactive: > 100 µM. Next, `O=Cc1c(-c2ccccc2)nc2ccccc2c1O`: inactive: 46.1 µM; `Cc1cc2c(=O)c(C)n[nH]c2c(C#N)c1C`: inactive: > 100 µM. On to `CCCN1CC=C(c2cc(C(=O)OCC)[nH]c2-c2cc(C)no2)C1=O`, for which the GI50 was inactive: > 100 µM.

As to `CCN(CC)CC/N=C\c1c(O)c(O)c(C(C)C)c2cc(C)c(-c3c(C)cc4c(C(C)C)c(O)c(O)c(/C=N/CCN(CC)CC)c4c3O)c(O)c12`, the GI50 is inactive: 6.17 µM. Under `Oc1cc(Cl)cc2cc(Cl)cnc12` stands inactive: 11.5 µM; under `CCC(=N\NC(N)=S)/C(C)=N/O`, inactive: > 100 µM; under `COC(=O)N/N=C/c1oc(-c2cccc([N+](=O)[O-])c2)c(-c2cccc([N+](=O)[O-])c2)c1[N+](=O)[O-]`, inactive: > 100 µM. Next, `CN(C)CCC(/C=C/c1ccccc1)=N\Nc1ccc(Cl)cc1Cl`: inactive: 19.7 µM. Next, `COC(=O)C(Cc1cc(OC)c(OC)c(OC)c1)(NC(=O)c1ccccc1)P(=O)(OC)OC` (stereo not drawn): inactive: > 100 µM. Regarding `O=C(OCc1ccccc1)N1CCNCCNCCN(C(=O)OCc2ccccc2)CCNCC1`, the GI50 is inactive: 12.6 µM. Under `CCOC(=O)c1sc2c(c1OC(=O)c1cccs1)c(=O)n(-c1ccccc1)c(=S)n2-c1ccccc1` stands inactive: 23.2 µM; under `CCOC(=O)/C=C/C1OC(C)(C)OC1/C=C/C(=O)OCC` (stereo not drawn), inactive: 27.9 µM; under `CCCCNC(=S)N/C=C1\C(=O)Nc2ccccc2C1=O`, inactive: > 10 µM. Under `CCCC(=O)OCC1OC(n2cc(F)c(=O)[nH]c2=O)C(F)C1O` (stereo not drawn) stands inactive: 33.5 µM; under `CC(=O)C(I(OS(=O)(=O)c1ccc(C)cc1)c1ccccc1)=P(c1ccccc1)(c1ccccc1)c1ccccc1`, inactive: 31.4 µM; under `Cc1noc2cccc(OCc3ccccc3)c12`, inactive: 60.4 µM. Next, `CCOC(=O)c1c(-c2ccccc2)nc2ccccc2c1O`: inactive: > 100 µM; `O=C(O)c1ccccc1C(=O)NCC1S(=O)(=O)OCCOS1(=O)=O`: inactive: > 100 µM. For the compound `COC(=O)c1c(O)ccc2[nH]c3c(O)c4ccccc4cc3c12`, the GI50 is inactive: 22.6 µM. Under `OCCOCn1cc(Cn2ncc3c(SCc4ccccc4)ncnc32)nn1` stands inactive: 57.3 µM.

On to `CC12CCC(C1)C(C)(C)C2OC(=O)c1ccccc1N` (stereo not drawn), for which the GI50 was inactive: 12.3 µM. Under `O=C(Nc1cccc2ccccc12)Oc1ccccc1C1CCCCC1` stands inactive: 22.4 µM; under `COC(=O)C(CC(C)C)NC(=O)C(NC(=O)c1ccc(-c2ccc(Cl)cc2Cl)o1)C(C)C` (stereo not drawn), inactive: 29.6 µM. Under `[N-]=[N+]=Nc1ccc2c(c1)Sc1ccccc1N2CCCCN1CCN(Cc2ccc(C(=O)c3ccc(CSCC(N)C(=O)O)cc3)cc2)CC1` (stereo not drawn) stands inactive: 22.6 µM; under `CC1=C[C@@H]2Cc3nc4cc(Cl)ccc4c(N)c3[C@H](C1)C2`, inactive: 10.5 µM. With `COC(=O)[C@@]12CSC[C@]1(C(=O)OC)N[C@@H](c1ccccc1O)C2`, the GI50 is inactive: > 100 µM. Under `COc1cc(N(CCC#N)CCC#N)ccc1C(=N/NC(=O)c1cc(Br)ccc1O)/N=N/c1ccc(C)cc1` stands inactive: 19 µM; under `COC1CC(OC2C(C)OC(OC3C(C)OC(OC4C(O)CC(O[C@H]5CC[C@@]6(C)C(=CC[C@]7(O)[C@@H]6C[C@@H](OC(=O)/C=C/c6ccccc6)[C@@]6(C)[C@]7(O)CC[C@@]6(O)C(C)=O)C5)OC4C)CC3OC)CC2OC)OC(C)C1O` (stereo partly drawn), inactive: > 6.25 µM; under `O=C(CCCCCCCCC(=O)N1C(=O)CC(=O)N(c2ccc(Cl)cc2)C1=S)N1C(=O)CC(=O)N(c2ccc(Cl)cc2)C1=S`, inactive: 38.5 µM. Under `COc1ccc(-c2nc3cc(C(F)(F)F)ccc3n2CC2CCCN3CCCCC23)cc1` (stereo not drawn) stands inactive: 16.6 µM. Next, `O=C1c2ccccc2C(=O)c2c(O)c(NCCNCCO)cc(O)c21`: inactive: 3.27 µM; `CCCCCCCCC(=O)CCCCCCCCC(=O)O`: inactive: 24.6 µM. As for `COc1cccc(N2CCc3c(C)c(C#N)c4nc5ccccc5n4c32)c1`, the GI50 was inactive: > 100 µM. As to `COc1cc(-c2cc(=O)c3c(OC)c(OC)c(OC)c(OC)c3o2)c(OC)c(OC)c1OC`, the GI50 is inactive: 36.3 µM. Next, `COc1ccc(P2(=S)Oc3ccccc3-c3ccccc3O2)cc1`: active: 0.55 µM. Next, `CC12CC(=O)OC(Cc3ccccc31)O2` (stereo not drawn): inactive: > 100 µM; `COc1c(-c2nc3ccc(N4CCN(C)CC4)nc3[nH]2)cc(OC)c2c1nc(COC(C)=O)n2C`: inactive: 58.7 µM. Under `CC(=O)NC1C(OCC(=O)NC(C)C(=O)NC(CCC(=O)NCCCCCNc2ccc([N+](=O)[O-])c3[nH]c4ccccc4c(=O)c23)C(N)=O)C(O)C(CO)OC1(C)OCc1ccccc1` (stereo not drawn) stands inactive: > 50 µM. With `COc1ccc2c(c1)CC[C@@H]1C2CC[C@]2(C)C(=O)NC(=O)CC12` (stereo partly drawn), the GI50 was inactive: > 100 µM. Next, `CC1C2CC(CC2N)C1(C)C` (stereo not drawn): inactive: > 100 µM. Under `O=[N+]([O-])c1ccc(/N=N\c2c(O)c(S(=O)(=O)O)cc3cc(S(=O)(=O)O)ccc23)cc1` stands inactive: > 100 µM; under `O=C1C2C3C=CC(C2C(=O)N1COP(=O)(O)O)C1C2C(=O)N(COP(=O)(O)O)C(=O)C2C31` (stereo not drawn), inactive: > 100 µM; under `CSc1cccc(-n2c3nc(=O)n(C)c(=O)c-3nc3ccccc32)c1`, inactive: 11 µM. Next, `COC(=O)C12Oc3ccc(-c4ccc5c(c4O)C(O)=C4C(=O)CC(C)C(O)C4(C(=O)OC)O5)c(O)c3C(O)=C1C(=O)CC(C)C2O` (stereo not drawn): active: 0.0647 µM; `O=C(O)c1ccccc1NS(=O)(=O)c1ccc(Cl)cc1`: inactive: > 100 µM; `CCCCCCCCCC(=O)N[C@H]1CCc2cc(OC)c(OC)c(OC)c2-c2ccc(SC)c(=O)cc21`: active: 0.0421 µM. In the case of `Cc1ccc(-c2cc(O)c3cc4c(cc3n2)OCO4)cc1`, the GI50 was inactive: 2.73 µM.

For `O=C(OCc1ccc([N+](=O)[O-])cc1)N1c2ccccc2[C@@]23O[C@]24CCC[C@H]3C#C/C=C\C#C[C@H]14`, the GI50 is inactive: > 100 µM. Under `CC1=C(C)C(=O)O[C@@H]([C@](C)(O)[C@]2(O)CC[C@@]3(O)[C@@H]4C[C@H]5O[C@]56[C@@H](O)C=CC(=O)[C@]6(C)[C@H]4CC[C@]23C)C1` stands inactive: 1.16 µM; under `CN(C)CCCNc1ccc2c(=O)n(CCN(C)C)c(=O)n3c4ccccc4c(=O)c1c23`, active: 0.054 µM.
